For at least one compound, name, drawing or mass did not settle the structure. Numbered stars: 1 amine (or outer) side, 2 acyl side, 3 side chain; on linkers, the order of the positions; unused ones are H or OH. Side chains are listed from the residue outwards. Peptide text beside a SMILES is read from it. * marks the point of attachment. Decanoyl(10-(4-HOOC-PhO)) = O=C(O)c1ccc(OCCCCCCCCCC(=O)*)cc1; γGlu = O=C(O)[C@H](CCC(=O)[*:2])N[*:1]; AEEA = NCCOCCOCC(=O)O
Biological target: T1, human GLP-1 receptor (Homo sapiens, UniProt P43220)
T1 construct: expressed in transfected cells; membranes
T1 sequence (P43220 24-463): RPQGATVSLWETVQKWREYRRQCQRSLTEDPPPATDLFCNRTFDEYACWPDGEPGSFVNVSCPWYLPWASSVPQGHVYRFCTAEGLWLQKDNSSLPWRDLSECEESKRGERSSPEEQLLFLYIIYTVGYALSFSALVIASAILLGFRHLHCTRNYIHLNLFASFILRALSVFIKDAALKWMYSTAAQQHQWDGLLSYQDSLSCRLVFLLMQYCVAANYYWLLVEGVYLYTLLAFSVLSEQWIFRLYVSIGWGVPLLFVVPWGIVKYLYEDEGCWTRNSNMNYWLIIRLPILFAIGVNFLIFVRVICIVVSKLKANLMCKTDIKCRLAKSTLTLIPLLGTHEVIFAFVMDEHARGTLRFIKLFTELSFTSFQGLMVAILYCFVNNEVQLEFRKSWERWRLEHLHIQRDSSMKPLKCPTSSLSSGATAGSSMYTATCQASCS
Test: GLP-1 receptor binding: displacement of 125I-GLP-1 (SPA) at low and high albumin
Details: 2.0% HSA vs 0.001% HSA
Procedure: The purpose of this experiment is to investigate the binding to the GLP-1 receptor of the GLP-1 derivatives, and how the binding is potentially influenced by the presence of albumin. This is done in an in vitro experiment as described below.
In order to test the binding of the derivatives to albumin, the assay was performed with a low concentration of albumin (0.001%—corresponding to the residual amount thereof in the tracer), as well as with a high concentration of albumin (2.0% added). A shift in the binding affinity, IC50, is an indication that the peptide in question binds to albumin, and thereby a prediction of a potential protracted pharmacokinetic profile of the peptide in question in animal models.
Species (in vitro): Hamster
Biological End Point: Receptor Binding
A stable transfected cell line and a high expressing clone were selected for screening. The cells were grown at 5% CO2 in DMEM, 10% FCS, 1% Pen/Strep (Penicillin/Streptomycin) and 1.0 mg/ml of the selection marker G418.
The cells (approx. 80% confluence) were washed twice in PBS and harvested with Versene (aqueous solution of the tetrasodium salt of ethylenediaminetetraacetic acid), following which they were separated by centrifugation at 1000 rpm for 5 min. The cells/cell pellet must be kept on ice to the extent possible in the subsequent steps. The cell pellet was homogenised with Ultrathurrax for 20-30 seconds in a suitable amount of Buffer 1 (depending on the amount of cells, but e.g. 10 ml). The homogenate was centrifuged at 20000 rpm for 15 minutes. The pellet was resuspended (homogenised) in 10 ml Buffer 2 and re-centrifuged. This step was repeated once more. The resulting pellet was resuspended in Buffer 2, and the protein concentration was determined. The membranes were stored at minus 80° C.
Buffer 1: 20 mM Na-HEPES+10 mM EDTA, pH 7.4
Buffer 2: 20 mM Na-HEPES+0.1 mM EDTA, pH 7.4
Test compounds, membranes, SPA-particles and [^125I]-GLP-1(7-36)NH2 were diluted in assay buffer. 50 ul (micro liter) HSA (“high albumin” experiment containing 2% HSA), or buffer (“low albumin” experiment containing 0.001% HSA), was added to Optiplate, and 25 ul of test compounds were added. 5-10 ug membrane protein/sample was added (50 ul) corresponding to 0.1-0.2 mg protein/ml (to be preferably optimised for each membrane preparation). SPA-particles (Wheatgerm agglutinin SPA beads, Perkin Elmer, #RPNQ0001) were added in an amount of 0.5 mg/well (50 ul). The incubation was started with [^125I]-GLP-1]-(7-36)NH2 (final concentration 0.06 nM corresponding to 49.880 DPM, 25 ul). The plates were sealed with PlateSealer and incubated for 120 minutes at 30° C. while shaking. The plates were centrifuged (1500 rpm, 10 min) and counted in Topcounter.

SMILES | Ratio [(IC50/nM) high HSA]/[(IC50/nM) low HSA]
CC[C@H](C)[C@H](NC(=O)[C@H](Cc1ccccc1)NC(=O)[C@H](CCCCNC(=O)COCCOCCNC(=O)COCCOCCNC(=O)CC[C@H](NC(=O)CCCCCCCCCOc1ccc(C(=O)O)cc1)C(=O)O)NC(=O)[C@H](CCCNC(=N)N)NC(=O)[C@@H](NC(=O)[C@H](C)NC(=O)[C@H](CCC(N)=O)NC(=O)CNC(=O)[C@H](CCC(=O)O)NC(=O)[C@H](CC(C)C)NC(=O)[C@H](Cc1ccc(O)cc1)NC(=O)[C@H](CO)NC(=O)[C@H](CO)NC(=O)[C@@H](NC(=O)[C@H](CC(=O)O)NC(=O)[C@H](CO)NC(=O)[C@@H](NC(=O)[C@H](Cc1ccccc1)NC(=O)[C@@H](NC(=O)CNC(=O)[C@H](CCC(=O)O)NC(=O)[C@H](C)NC(=O)[C@@H](N)Cc1c[nH]cn1)[C@@H](C)O)[C@@H](C)O)C(C)C)C(C)C)C(=O)N[C@@H](CCC(=O)O)C(=O)N[C@@H](Cc1c[nH]c2ccccc12)C(=O)N[C@@H](CC(C)C)C(=O)N[C@H](C(=O)N[C@@H](CCCNC(=N)N)C(=O)NCC(=O)N[C@@H](CCCCNC(=O)COCCOCCNC(=O)COCCOCCNC(=O)CC[C@H](NC(=O)CCCCCCCCCOc1ccc(C(=O)O)cc1)C(=O)O)C(=O)NCC(=O)N[C@@H](CCC(N)=O)C(=O)O)C(C)C [Example 12, N^α(N^ε27-[2-[2-[2-[[2-[2-[2-[[(4S)-4-carboxy-4-[10-(4-carboxyphenoxy)decanoylamino]butanoyl]amino]ethoxy]ethoxy]acetyl]amino]ethoxy]ethoxy]acetyl], N^ε36-[2-[2-[2-[[2-[2-[2-[[(4S)-4-carboxy-4-[10-(4-carboxyphenoxy)decanoylamino]butanoyl]amino]ethoxy]ethoxy]acetyl]amino]ethoxy]ethoxy]acetyl]-[Val^25,Arg^26,Lys^27,Glu^30,Arg^34,Lys^36]-GLP-1-(7-37)-peptidyl)-Gln] (H-HAEGTFTSDVSSYLEGQAVRK([AEEA-AEEA-γGlu-Decanoyl(10-(4-HOOC-PhO))])FIEWLVRGK([AEEA-AEEA-γGlu-Decanoyl(10-(4-HOOC-PhO))])GQ-OH; N-terminus and C-terminus assumed) | 453
CC[C@H](C)[C@H](NC(=O)[C@H](Cc1ccccc1)NC(=O)[C@H](CCCCNC(=O)COCCOCCNC(=O)COCCOCCNC(=O)CC[C@H](NC(=O)CCCCCCCCCOc1ccc(C(=O)O)cc1)C(=O)O)NC(=O)[C@H](CCCNC(=N)N)NC(=O)[C@@H](NC(=O)[C@H](C)NC(=O)[C@H](CCC(N)=O)NC(=O)CNC(=O)[C@H](CCC(=O)O)NC(=O)[C@H](CC(C)C)NC(=O)[C@H](Cc1ccc(O)cc1)NC(=O)[C@H](CO)NC(=O)[C@H](CO)NC(=O)[C@@H](NC(=O)[C@H](CC(=O)O)NC(=O)[C@H](CO)NC(=O)[C@@H](NC(=O)[C@H](Cc1ccccc1)NC(=O)[C@@H](NC(=O)CNC(=O)[C@H](CCC(=O)O)NC(=O)[C@H](C)NC(=O)[C@@H](N)Cc1c[nH]cn1)[C@@H](C)O)[C@@H](C)O)C(C)C)C(C)C)C(=O)N[C@@H](CCC(=O)O)C(=O)N[C@@H](Cc1c[nH]c2ccccc12)C(=O)N[C@@H](CC(C)C)C(=O)N[C@H](C(=O)N[C@@H](CCC(N)=O)C(=O)NCC(=O)N[C@@H](CCCCNC(=O)COCCOCCNC(=O)COCCOCCNC(=O)CC[C@H](NC(=O)CCCCCCCCCOc1ccc(C(=O)O)cc1)C(=O)O)C(=O)NCC(=O)N[C@@H](CCC(=O)O)C(=O)O)C(C)C [Example 13, N^ε27-[2-[2-[2-[[2-[2-[2-[[(4S)-4-carboxy-4-[10-(4-carboxyphenoxy)decanoylamino]butanoyl]amino]ethoxy]ethoxy]acetyl]amino]ethoxy]ethoxy]acetyl], N^ε36-[2-[2-[2-[[2-[2-[2-[[(4S)-4-carboxy-4-[10-(4-carboxyphenoxy)decanoylamino]butanoyl]amino]ethoxy]ethoxy]acetyl]amino]ethoxy]ethoxy]acetyl]-[Val^25,Arg^26,Lys^27,Glu^30,Gln^34,Lys^36]-GLP-1-(7-37)-peptidyl-Glu] (H-HAEGTFTSDVSSYLEGQAVRK([AEEA-AEEA-γGlu-Decanoyl(10-(4-HOOC-PhO))])FIEWLVQGK([AEEA-AEEA-γGlu-Decanoyl(10-(4-HOOC-PhO))])GE-OH; N-terminus and C-terminus assumed) | 804
CC[C@H](C)[C@H](NC(=O)[C@H](Cc1ccccc1)NC(=O)[C@H](CCCCNC(=O)COCCOCCNC(=O)COCCOCCNC(=O)CC[C@H](NC(=O)CCCCCCCCCOc1ccc(C(=O)O)cc1)C(=O)O)NC(=O)[C@H](Cc1c[nH]cn1)NC(=O)[C@H](C)NC(=O)[C@H](C)NC(=O)[C@H](CCC(N)=O)NC(=O)[C@H](CCC(=O)O)NC(=O)[C@H](CCC(=O)O)NC(=O)[C@H](CC(C)C)NC(=O)[C@H](Cc1ccc(O)cc1)NC(=O)[C@H](CO)NC(=O)[C@H](CO)NC(=O)[C@@H](NC(=O)[C@H](CC(=O)O)NC(=O)[C@H](CO)NC(=O)[C@@H](NC(=O)[C@H](Cc1ccccc1)NC(=O)[C@@H](NC(=O)CNC(=O)[C@H](CCC(=O)O)NC(=O)[C@H](C)NC(=O)[C@@H](N)Cc1c[nH]cn1)[C@@H](C)O)[C@@H](C)O)C(C)C)C(=O)N[C@@H](CCC(=O)O)C(=O)N[C@@H](Cc1c[nH]c2ccccc12)C(=O)N[C@@H](CC(C)C)C(=O)N[C@H](C(=O)N[C@@H](CCCNC(=N)N)C(=O)NCC(=O)N[C@@H](CCCCNC(=O)COCCOCCNC(=O)COCCOCCNC(=O)CC[C@H](NC(=O)CCCCCCCCCOc1ccc(C(=O)O)cc1)C(=O)O)C(=O)NCC(=O)N[C@@H](CCC(=O)O)C(=O)O)C(C)C [Example 21, N^ε27-[2-[2-[2-[[2-[2-[2-[[(4S)-4-carboxy-4-[10-(4-carboxyphenoxy)decanoylamino]butanoyl]amino]ethoxy]ethoxy]acetyl]amino]ethoxy]ethoxy]acetyl], N^ε36-[2-[2-[2-[[2-[2-[2-[[(4S)-4-carboxy-4-[10-(4-carboxyphenoxy)decanoylamino]butanoyl]amino]ethoxy]ethoxy]acetyl]amino]ethoxy]ethoxy]acetyl]-[Glu^22,His^26,Lys^27,Glu^30,Arg^34,Lys^36]-GLP-1-(7-37)-peptidyl-Glu] (H-HAEGTFTSDVSSYLEEQAAHK([AEEA-AEEA-γGlu-Decanoyl(10-(4-HOOC-PhO))])FIEWLVRGK([AEEA-AEEA-γGlu-Decanoyl(10-(4-HOOC-PhO))])GE-OH; N-terminus and C-terminus assumed) | 163
CC[C@H](C)[C@H](NC(=O)[C@H](Cc1ccccc1)NC(=O)[C@H](CCCCNC(=O)COCCOCCNC(=O)COCCOCCNC(=O)CC[C@H](NC(=O)CC[C@H](NC(=O)CCCCCCCCCOc1ccc(C(=O)O)cc1)C(=O)O)C(=O)O)NC(=O)[C@H](CCCNC(=N)N)NC(=O)[C@@H](NC(=O)[C@H](C)NC(=O)[C@H](CCC(N)=O)NC(=O)CNC(=O)[C@H](CCC(=O)O)NC(=O)[C@H](CC(C)C)NC(=O)[C@H](Cc1ccc(O)cc1)NC(=O)[C@H](CO)NC(=O)[C@H](CO)NC(=O)[C@@H](NC(=O)[C@H](CC(=O)O)NC(=O)[C@H](CO)NC(=O)[C@@H](NC(=O)[C@H](Cc1ccccc1)NC(=O)[C@@H](NC(=O)CNC(=O)[C@H](CCC(=O)O)NC(=O)[C@H](C)NC(=O)[C@@H](N)Cc1c[nH]cn1)[C@@H](C)O)[C@@H](C)O)C(C)C)C(C)C)C(=O)N[C@@H](C)C(=O)N[C@@H](Cc1c[nH]c2ccccc12)C(=O)N[C@@H](CC(C)C)C(=O)N[C@H](C(=O)N[C@@H](CCC(N)=O)C(=O)NCC(=O)N[C@@H](CCCCNC(=O)COCCOCCNC(=O)COCCOCCNC(=O)CC[C@H](NC(=O)CC[C@H](NC(=O)CCCCCCCCCOc1ccc(C(=O)O)cc1)C(=O)O)C(=O)O)C(=O)NCC(=O)O)C(C)C [Example 23] (H-HAEGTFTSDVSSYLEGQAVRK([AEEA-AEEA-γGlu-γGlu-Decanoyl(10-(4-HOOC-PhO))])FIAWLVQGK([AEEA-AEEA-γGlu-γGlu-Decanoyl(10-(4-HOOC-PhO))])G-OH; N-terminus and C-terminus assumed) | 47
